Measurements as given in the RNAGym collection of RNA variant scans (doi:10.7554/elife.90254).
Read counts are not given, so values of variants with three or more changes are uncertain.

B1: LINE1-full (parent)
chain: UACGUAGGUGGUUUUCCCCUGAUAGUGCUAAGGGGGCCUGGAAGUUUGGACUGGGCAGAGCUCAACACAGCGUGGCAAAGUGGCUGUGGCUAGACUGCCUCUCUGGAUUCCUCGUCACUCAGCAGGGCAUCUCUGAGAGAAAUGCC

Variants of: B1
Test: self-cleavage, relative activity (ratio to wild type); higher = more cleavage; in vitro, sequencing; the parent is a self-cleaving ribozyme

Row | Variant | self-cleavage
1 | UACGUAGGUGGUUUUCCCCUGAUAGUGCUAAGGGGGCCUGGAAGUCUGGACUGGGCAGAGCUCAACACAGCGUGGCAAAGUGGCUGUGGCUAGACCGCCUCUCUGGAUACCUCGUCACUCAGCAGGGCAUCUCUGAGAGAAAUGCC [U46C U96C U109A] | 0.11
2 | UACGUAGGUGGUUUUCCCCUGAUAGUGCUAAGGGGGCCUGGAAGUCUGGACUGGGCAGAGCUCAACACAGCGUGGCAAAGUGGCUGUGGCUAGACUGCCACACUGGAUUCCUCGUCACUCAGCAGGGCAUCUCUGAGAGAAAUGCC [U46C U100A U102A] | 0.85
3 | UACGUAGGUGGUUUUCCCCUGAUAGUGCUAAGGGGGCCUGGAAGUCUGGACUGGGCAGAGCUCAACACAGCGUGGCAAAGUGGCUGUGGCUAGACUGCCUCUCUGGAAUCCUCGUCACUCAGCAGGGCACCUCUGAGAGAAAUGCC [U46C U108A U130C] | 1.06
4 | UACGUAGGUGGUUUUCCCCUGAUAGUGCUAAGGGGGCCUGGAAGUCUGGACUGGGCAGAGCUCAACACAGCGUGGCAAAGUGGCUGUGGCUAGACUGCCUCUCUGGAUCCCUCGUCACUCAGCAGGGCAUCUCUGAAAGAAAUGCC [U46C U109C G137A] | 1.84
5 | UACGUAGGUGGUUUUCCCCUGAUAGUGCUAAGGGGGCCUGGAAGUCUGGACUGGGCAGAGCUCAACACAGCGUGGCAAAGUGGCUGUGGCUAGACUGCCUCUCUGGAUUCCACGUCACUCAGCUGGGCGUCUCUGAGAGAAAUGCC [U46C U112A A124U A129G] | 2.3
6 | UACGUAGGUGGUUUUCCCCUGAUAGUGCUAAGGGGGCCUGGAAGUCUGGACUGGGCAGAGCUCAACACAGCGUGGCAAAGUGGCUGUGGCUAGACUGCCUCUCUGGAUUCCACGUCACUCAGCAGGGCAACUCUGAGAGAAAUGCC [U46C U112A U130A] | 2.68
7 | UACGUAGGUGGUUUUCCCCUGAUAGUGCUAAGGGGGCCUGGAAGUCUGGACUGGGCAGAGCUCAACACAGCGUGGCAAAGUGGCUGUGGCUAGACUGCCUCUCUGGAUUCCCCGUCACUCAGCAGGGCAUCUCCGAGGGAAAUGCC [U46C U112C U134C A138G] | 2.85
8 | UACGUAGGUGGUUUUCCCCUGAUAGUGCUAAGGGGGCCUGGAAGUCUGGACUGGGCAGAGCUCAACACAGCGUGGCAAAGUGGCUGUGGCUAGACUGCCUCUCUGGAUUCCUCGACACUCUGCAGGGCAUCUCUGAGAGAGAUGCC [U46C U115A A121U A141G] | 1.54
9 | UACGUAGGUGGUUUUCCCCUGAUAGUGCUAAGGGGGCCUGGAAGUCUGGACUGGGCAGAGCUCAACACAGCGUGGCAAAGUGGCUGUGGCUAGACUGCCUCUCUGGAUUCCUCGACACUCAGCAGGGCAUCUCUGAGGGAAAUGUC [U46C U115A A138G C145U] | 1.19
10 | UACGUAGGUGGUUUUCCCCUGAUAGUGCUAAGGGGGCCUGGAAGUCUGGACUGGGCAGAGCUCAACACAGCGUGGCAAAGUGGCUGUGGCUAGACUGCCUCUCUGGAUUCCUCGACACUCAGCAGGGCAUCUCUGAGAGAGAUGCC [U46C U115A A141G] | 1.72
11 | UACGUAGGUGGUUUUCCCCUGAUAGUGCUAAGGGGGCCUGGAAGUGUGGACUGGGCAGGGCCCAACACAGCGUGGCAAAGUGGCUGUGGCUAGACUGCCUCUCUGGAUUCCUCGUCACUCAGCAGGGCAUCUCUGAGAGAAAUGCC [U46G A59G U62C] | 0.46
12 | UACGUAGGUGGUUUUCCCCUGAUAGUGCUAAGGGGGCCUGGAAGUGUGGACUGGGCAGAGCUCAACACAGCGUGGCAAAGUAGCUGUGGCUAGACUGCCCCUCUGGAUUCCUCGUCACUCAGCAGGGCAUCUCUGAGAGAAAUGCC [U46G G82A U100C] | 2.51
13 | UACGUAGGUGGUUUUCCCCUGAUAGUGCUAAGGGGGCCUGGAAGUGUGGACAGGGCAGAGCUCAACACAGCGUGGCAAAGUGGCUGUGCCUAGACUGCCUCUCUGGAUUCCUCGUCUCUCAGCAGGGCAUCCCUGGGGGAAAUGCC [U46G U52A G89C A117U U132C A136G A138G] | 0.02
14 | UACGUAGGUGGUUUUCCCCUGAUAGUGCUAAGGGGGCCUGGAAGUUAGGCCUGGGCAGAGCUCAACACAGCGUGGCAAAGUGGCUGUGGCUAGACAGCCUCUCUGGAUUCCUCGUCACUCAGCAGGGCAUCUCUGAGAGAAAUGCC [U47A A50C U96A] | 0.07
15 | UACGUAGGUGGUUUUCCCCUGAUAGUGCUAAGGGGGCCUGGAAGUUAGGGCUGGGCAGAGCUCAACACGGCGUGGCAAAGUGGCUGUGGCAAGACUGCCUCUCUGGAUUCCUCGUCACACAGCAGGGCAUCUCUGAGAGAAAUGCC [U47A A50G A69G U91A U119A] | 0.4
16 | UACGUAGGUGGUUUUCCCCUGAUAGUGCUAAGGGGGCCUGGAAGUUAGGACUGGGCGGAGCUCAACGCAGCGUGGCAAAGUGGCUGUGGCUAGACUGCCUCUCUGGAUUCCUCGUCACUCAGCAGGGCAUCUCUGAGAGAAAUGCC [U47A A57G A67G] | 0.36
17 | UACGUAGGUGGUUUUCCCCUGAUAGUGCUAAGGGGGCCUGGAAGUUAGGACUGGGCGGAGCUCAACACAGCGCGGCAAAGUGGCUGUGGCUAGACUGCCUCUCUGGAUUCCUCGACACUCAGCAGGGCAUCUCUGAGAGAAAUGCC [U47A A57G U73C U115A] | 0.77
18 | UACGUAGGUGGUUUUCCCCUGAUAGUGCUAAGGGGGCCUGGAAGUUAGGACUGGGCAGGGCUCAACACAGCGUGGCAAAGUGGCUGUGGCUAGACCGCCUCUCUGGAUUCCUCGUCACUCAGCAGGGCAUCUCUGAGAGAAAUGCC [U47A A59G U96C] | 0.08
19 | UACGUAGGUGGUUUUCCCCUGAUAGUGCUAAGGGGGCCUGGAAGUUAGGACUGGGCAGAGCUCCACACAGGGUGGCAAAGUGGCUGUGGCUAGACUGCCUCUCUGGAUUCCUCGUCACUCAGCAGGGCAUCUCUGAGCGAAAUGCC [U47A A64C C71G A138C] | 0.08
20 | UACGUAGGUGGUUUUCCCCUGAUAGUGCUAAGGGGGCCUGGAAGUUAGGACUGGGCAGAGCUCUACGCAGCGUGGCAAAGUGGCUGUGGCUAGACUGCCUCUCUGGAUUCCUCGUCACUCAGCAGGGCACCUCUGAGAGAAAUGCC [U47A A64U A67G U130C] | 0.18

Row | Variant | self-cleavage
21 | UACGUAGGUGGUUUUCCCCUGAUAGUGCUAAGGGGGCCUGGAAGUUAGGACUGGGCAGAGCUCACCACAGCGUGGCAAAGUGGCUGCGGCUAGACUGCCUCUCUGGAUUCCUCGUCACUCAGCAGGGCAUCUCUGAGAGAAAUGCC [U47A A65C U87C] | 0.03
22 | UACGUAGGUGGUUUUCCCCUGAUAGUGCUAAGGGGGCCUGGAAGUUAGGACUGGGCAGAGCUCAUCACAGCGUGGCAAAGUGGCUGUGGCUAGACUGCCUCUCUGGAUUCCUCGUCACACAGCAGGGCAUCUCUGAGAGAAAUGCC [U47A A65U U119A] | 0.19
23 | UACGUAGGUGGUUUUCCCCUGAUAGUGCUAAGGGGGCCUGGAAGUUAGGACUGGGCAGAGCUCAACGCAGCGUGGCAAAGUGGCUGUGGCUAGACUGCCUCUCUGGAUUCCUCGUCACUCAGCAGGUCAUCUCUGAGAGAAAUGCC [U47A A67G G127U] | 0.52
24 | UACGUAGGUGGUUUUCCCCUGAUAGUGCUAAGGGGGCCUGGAAGUUAGGACUGGGCAGAGCUCAACACAGCGUGGCCAAGUGGCUGUGGCUAGACUGCCUCUCUGGAUUCCUCGUCACUCAGCAGGGCACCUCUGAGAGAAAUGCC [U47A A77C U130C] | 0.93
25 | UACGUAGGUGGUUUUCCCCUGAUAGUGCUAAGGGGGCCUGGAAGUUAGGACUGGGCAGAGCUCAACACAGCGUGGCGGAGUGGCUGUGGCUUGACUGCCUCUCUGGAUUCCUCGUCACUCAGCAGGGCAUCUCUGAGAGAAAUGCC [U47A A77G A78G A92U] | 0.97
26 | UACGUAGGUGGUUUUCCCCUGAUAGUGCUAAGGGGGCCUGGAAGUUAGGACUGGGCAGAGCUCAACACAGCGUGGCGAAGUGGCUGUGGCUAGACUGCCUCUCUGGAUUCCUCGUCACUCUGCUGGGCAUCUCUGAGAGGAAUGCC [U47A A77G A121U A124U A140G] | 1.66
27 | UACGUAGGUGGUUUUCCCCUGAUAGUGCUAAGGGGGCCUGGAAGUUAGGACUGGGCAGAGCUCAACACAGCGUGGCGAAGUGGAUGUGGCUAGACUGCCUCUCUGGAUUCCUCGUCACUCAGCAGGGCAUCUCUGAGAGAGAUGCC [U47A A77G C84A A141G] | 0.13
28 | UACGUAGGUGGUUUUCCCCUGAUAGUGCUAAGGGGGCCUGGAAGUUAGGACUGGGCAGAGCUCAACACAGCGUGGCAGGGUGGCUGUGGCUAGACUGCCUCUCUGGAUUCCUCGUCACUCAGCAGGGCAUCUCUGAGAGAAAUGCC [U47A A78G A79G] | 1.1
29 | UACGUAGGUGGUUUUCCCCUGAUAGUGCUAAGGGGGCCUGGAAGUUAGGACUGGGCAGAGCUCAACACAGCGUGGCAGAGUGGCUGUGGCUAGGCUGCCUCUCUGGAUUCCUCGUCACUCAGCAGGGCAUCUCUGAGAGAGAUGCC [U47A A78G A94G A141G] | 0.13
30 | UACGUAGGUGGUUUUCCCCUGAUAGUGCUAAGGGGGCCUGGAAGUUAGGACUGGGCAGAGCUCAACACAGCGUGGCAGAGUGGCUGUGGCUAGACUGCCUCUCUGGAUUCCUCGUCACUCAGCAGGGCAUCCCUGAGGGAAAUGCC [U47A A78G U132C A138G] | 1.75
31 | UACGUAGGUGGUUUUCCCCUGAUAGUGCUAAGGGGGCCUGGAAGUUAGGACUGGGCAGAGCUCAACACAGCGUGGCAAUGUGGCUGUGGCUAGACUGCCUCUCUGGAUUCCUCGUCACUCAGUAGGGCAUCUCUGAGAGGAAUGCC [U47A A79U C123U A140G] | 1.98
32 | UACGUAGGUGGUUUUCCCCUGAUAGUGCUAAGGGGGCCUGGAAGUUAGGACUGGGCAGAGCUCAACACAGCGUGGCAAAGUGGCUGUGGCUAGGCUGCCUCUCUGAAUUCCUCGUCACUCAGCAGGGCAUCUCUGAGAGAAAUGCC [U47A A94G G106A] | 0.38
33 | UACGUAGGUGGUUUUCCCCUGAUAGUGCUAAGGGGGCCUGGAAGUUAGGACUGGGCAGAGCUCAACACAGCGUGGCAAAGUGGCUGUGGCUAGACUGCCUCUCUGGGCUCCUCGUCACUCAGCAGGGCACCUCUGAGAGAAACGCC [U47A A107G U108C U130C U143C] | 2.12
34 | UACGUAGGUGGUUUUCCCCUGAUAGUGCUAAGGGGGCCUGGAAGUUAGGACUGGGCAGAGCUCAACACAGCGUGGCAAAGUGGCUGUGGCUAGACUGCCUCUCUGGAUUCCUCGUCGCUCAGCAGGGCAUCUCUGAGAGGAAUGCC [U47A A117G A140G] | 1.02
35 | UACGUAGGUGGUUUUCCCCUGAUAGUGCUAAGGGGGCCUGGAAGUUAGGACUGGGCAGAGCUCAACACAGCGUGGCAAAGUGGCUGUGGCUAGACUGCCUCUCUGGAUUCCUCGUCGCUCAGCAGGGCAUAUCUGAGAGAAAUGCC [U47A A117G C131A] | 1.27
36 | UACGUAGGUGGUUUUCCCCUGAUAGUGCUAAGGGGGCCUGGAAGUUAGGACUGGGCAGAGCUCAACACAGCGUGGCAAAGUGGCUGUGGCUAGACUGCCUCUCUGGAUUCCUCGUCUCUCAGCAGGGCAUCUCUGUGAGAAAUGCC [U47A A117U A136U] | 1.09
37 | UACGUAGGUGGUUUUCCCCUGAUAGUGCUAAGGGGGCCUGGAAGUUAGGACUGGGCAGAGCUCAACACAGCGUGGCAAAGUGGCUGUGGCUAGACUGCCUCUCUGGAUUCCUCGUCACUCAGCAGGGCGUCUCAGAGAGAAACGCC [U47A A129G U134A U143C] | 1.34
38 | UACGUAGGUGGUUUUCCCCUGAUAGUGCUAAGGGGGCCUGGAAGUUAGGACUGGGCAGAGCUCAACACAGCGUGGCAAAGUGGCUGUGGCUAGACUGCCUCUCUGGAUUCCUCGUCACUCAGCAGGGCAUCUCUGUGAGAAACGCC [U47A A136U U143C] | 1.29
39 | UACGUAGGUGGUUUUCCCCUGAUAGUGCUAAGGGGGCCUGGAAGUUAGGACUGGGUAGAGCUCAACACAGCGUGGCAUAGUGGCUGUGGCUAGACUGCCUCUCUGGAUUCCUCGUCACUCAGCAGGGCAUCUCUGAGAGGAAUGCC [U47A C56U A78U A140G] | 0.24
